The values that follow come from the BET-seq Pho4 binding data (Le et al. 2018).

Some of the results follow. The energies were worked out here from pooled read counts, against the library average; single values are noisy.

The target of this test is T1, Pho4 (S. cerevisiae) (UniProt P07270).
T1 sequence: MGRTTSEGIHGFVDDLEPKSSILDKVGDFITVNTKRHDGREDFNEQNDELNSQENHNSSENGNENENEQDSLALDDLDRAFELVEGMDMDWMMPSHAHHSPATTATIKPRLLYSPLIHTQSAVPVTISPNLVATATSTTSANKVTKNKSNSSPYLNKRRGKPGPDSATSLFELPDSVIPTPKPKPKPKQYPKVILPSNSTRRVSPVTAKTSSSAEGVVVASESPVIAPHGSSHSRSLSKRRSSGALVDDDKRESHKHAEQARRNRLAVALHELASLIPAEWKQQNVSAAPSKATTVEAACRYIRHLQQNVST
In words: relative binding free energy (BET-seq); higher = weaker binding. Conditions: reference: library average.
For the sequence CGTTGCACGTGGCGTA, the “relative binding free energy” value amounted to 0.03 kcal/mol.

GGCGACACGTGGGCTG: the “relative binding free energy” value was -0.2 kcal/mol.

As to AGGTTCACGTGGTAGC, the “relative binding free energy” value was 0.15 kcal/mol.

Take ATGGTCACGTGCACGT: the “relative binding free energy” value amounted to 0 kcal/mol.

As to GAGGTCACGTGGGTTG, the “relative binding free energy” value turned out to be 0.09 kcal/mol.

With GCAGGCACGTGGGGGG, the “relative binding free energy” value is -0.18 kcal/mol.

For the sequence GTCGTCACGTGATGGG, the “relative binding free energy” value is 0.24 kcal/mol.

Regarding GTTTGCACGTGGATTC, the “relative binding free energy” value was 0.06 kcal/mol.

As for CAGTTCACGTGGAATT, the “relative binding free energy” value was 0.43 kcal/mol.

As for TGTTGCACGTGCTACG, the “relative binding free energy” value is -0.1 kcal/mol.

For the sequence TTTTTCACGTGCTGCA, the “relative binding free energy” value was found to be 0.24 kcal/mol.

GTGGACACGTGGGCTT: the “relative binding free energy” value is -0.05 kcal/mol.

Regarding TAGGGCACGTGGTCGA, the “relative binding free energy” value is -0.24 kcal/mol.

On to GTCAGCACGTGGAGTG, for which the “relative binding free energy” value was -0.1 kcal/mol.

Regarding TCGTGCACGTGAGTGG, the “relative binding free energy” value came to 0.07 kcal/mol.

For ATAGACACGTGGGGAG, the “relative binding free energy” value is -0.09 kcal/mol.

Consider TAGGCCACGTGACGGG, for which the “relative binding free energy” value was -0.09 kcal/mol.

With TAATGCACGTGTACTT, the “relative binding free energy” value is -0.06 kcal/mol.

For TATGCCACGTGGGGCA, the “relative binding free energy” value is -0.23 kcal/mol.

As for AACAGCACGTGAGGTT, the “relative binding free energy” value came to 0.17 kcal/mol.

For the sequence GTGGTCACGTGGTCAT, the “relative binding free energy” value is 0.07 kcal/mol.

For TATGCCACGTGATAGT, the “relative binding free energy” value worked out at 0.13 kcal/mol.

With AATAGCACGTGTGGCG, the “relative binding free energy” value is -0.05 kcal/mol.

Consider TGGTTCACGTGATAGA, for which the “relative binding free energy” value was 0.21 kcal/mol.

Consider GTGATCACGTGTGCAG, for which the “relative binding free energy” value was determined as 0.1 kcal/mol.

In the case of ATGGACACGTGTTGAA, the “relative binding free energy” value came to 0.06 kcal/mol.

Regarding CTTAGCACGTGTGGAT, the “relative binding free energy” value was determined as 0.03 kcal/mol.

Regarding GACGCCACGTGGTGGG, the “relative binding free energy” value was -0.18 kcal/mol.

As to GAAAGCACGTGGATGG, the “relative binding free energy” value is -0.02 kcal/mol.

For the sequence TCTAGCACGTGGGTTA, the “relative binding free energy” value was -0.19 kcal/mol.

For TCGGTCACGTGGCAGG, the “relative binding free energy” value is -0.05 kcal/mol.

ATTTTCACGTGGGTAC: the “relative binding free energy” value is 0.24 kcal/mol.

TTCTACACGTGGTCGT: the “relative binding free energy” value is 0.01 kcal/mol.

In the case of GTGGGCACGTGTTGAG, the “relative binding free energy” value was -0.1 kcal/mol.

On to CCGATCACGTGGTGGG, for which the “relative binding free energy” value amounted to 0.07 kcal/mol.

Regarding GAGTGCACGTGTCCGG, the “relative binding free energy” value came out at 0.01 kcal/mol.

TTAGACACGTGGCTGG: the “relative binding free energy” value is -0.03 kcal/mol.

As to TGAGTCACGTGAGTTT, the “relative binding free energy” value was 0.36 kcal/mol.

GGTAACACGTGGTCGT: the “relative binding free energy” value came out at 0.13 kcal/mol.

Take GCTAGCACGTGGCGGG: the “relative binding free energy” value was -0.07 kcal/mol.

On to TTGTACACGTGATAAT, for which the “relative binding free energy” value amounted to 0.41 kcal/mol.

In the case of TGTGTCACGTGGCCGC, the “relative binding free energy” value was 0.01 kcal/mol.

Regarding TAGGTCACGTGGGTGC, the “relative binding free energy” value was -0.01 kcal/mol.

As for GGACACACGTGTTGTG, the “relative binding free energy” value was -0.07 kcal/mol.

Take TATGGCACGTGAATCT: the “relative binding free energy” value is 0.18 kcal/mol.

Take TTAATCACGTGTGAAA: the “relative binding free energy” value amounted to 0.19 kcal/mol.

On to CTAGGCACGTGTTTTG, for which the “relative binding free energy” value is -0.05 kcal/mol.

Regarding GCGGGCACGTGTGGGT, the “relative binding free energy” value turned out to be 0.04 kcal/mol.

With TCTGTCACGTGATGGG, the “relative binding free energy” value was 0.27 kcal/mol.

On to CAATTCACGTGTAAGT, for which the “relative binding free energy” value amounted to 0.42 kcal/mol.

ATCGGCACGTGTGCGT: the “relative binding free energy” value was -0.09 kcal/mol.

With TTAGTCACGTGTCTGA, the “relative binding free energy” value was 0.01 kcal/mol.

On to GTTGTCACGTGATCGG, for which the “relative binding free energy” value was found to be 0.27 kcal/mol.

GTTGTCACGTGCCTGT: the “relative binding free energy” value was 0 kcal/mol.

Regarding GAGACCACGTGGGAGT, the “relative binding free energy” value came out at 0.13 kcal/mol.

Take AGGGACACGTGGGTGC: the “relative binding free energy” value is -0.2 kcal/mol.

As for TTACGCACGTGTTAGT, the “relative binding free energy” value is -0.17 kcal/mol.

In the case of TCGAGCACGTGGGAGT, the “relative binding free energy” value is -0.27 kcal/mol.

Turning to TCCGGCACGTGTGTGA, the “relative binding free energy” value came out at 0.07 kcal/mol.

On to CGTTACACGTGTGAAG, for which the “relative binding free energy” value amounted to 0.24 kcal/mol.

In the case of TGTGCCACGTGGTGTC, the “relative binding free energy” value was -0.21 kcal/mol.

With TTTTTCACGTGTTTGA, the “relative binding free energy” value turned out to be 0.26 kcal/mol.

Turning to CGTTTCACGTGTTCTG, the “relative binding free energy” value is 0.17 kcal/mol.

Turning to AGGCGCACGTGGTTAG, the “relative binding free energy” value was -0.17 kcal/mol.

AAGGCCACGTGTGGGC: the “relative binding free energy” value was -0.06 kcal/mol.

Regarding CATATCACGTGTTGTG, the “relative binding free energy” value worked out at 0.13 kcal/mol.

Take GATTTCACGTGTAGGT: the “relative binding free energy” value was 0.42 kcal/mol.

Consider TGGGTCACGTGGACCG, for which the “relative binding free energy” value was -0.08 kcal/mol.

As for CTAGTCACGTGGCGTT, the “relative binding free energy” value is -0.01 kcal/mol.

Take GTGCCCACGTGGGTGT: the “relative binding free energy” value is -0.25 kcal/mol.

In the case of ATGGTCACGTGATCAT, the “relative binding free energy” value came out at 0.16 kcal/mol.

On to GATGTCACGTGTTTCA, for which the “relative binding free energy” value is 0.22 kcal/mol.

For TAGAGCACGTGGAAAG, the “relative binding free energy” value turned out to be 0.07 kcal/mol.

In the case of AGCGTCACGTGGTATT, the “relative binding free energy” value is -0.11 kcal/mol.

In the case of AGAGGCACGTGTTGTT, the “relative binding free energy” value is -0.08 kcal/mol.

As for TGTGCCACGTGGGTTC, the “relative binding free energy” value is -0.22 kcal/mol.

As to ATGGACACGTGTTTGC, the “relative binding free energy” value was 0.08 kcal/mol.

Take AAATACACGTGTTGGT: the “relative binding free energy” value came out at 0.08 kcal/mol.

Regarding AATTGCACGTGGAGGG, the “relative binding free energy” value stood at 0 kcal/mol.

With AGTTGCACGTGCTTGA, the “relative binding free energy” value turned out to be 0 kcal/mol.

Turning to GGTATCACGTGTAATT, the “relative binding free energy” value came to 0.13 kcal/mol.

Turning to TGCGGCACGTGTAATA, the “relative binding free energy” value stood at 0.07 kcal/mol.

GGGGACACGTGGAATT: the “relative binding free energy” value is 0.21 kcal/mol.

Turning to GAGGTCACGTGTTGTA, the “relative binding free energy” value came out at 0.22 kcal/mol.

As for GTCTTCACGTGGGGGT, the “relative binding free energy” value was 0.2 kcal/mol.

In the case of GTCTTCACGTGGTGGA, the “relative binding free energy” value amounted to 0.42 kcal/mol.

Regarding GTCATCACGTGGGGCT, the “relative binding free energy” value was determined as 0.1 kcal/mol.

For TTCTGCACGTGTTTCT, the “relative binding free energy” value was 0.13 kcal/mol.

Regarding GCTGGCACGTGGAGCG, the “relative binding free energy” value is -0.07 kcal/mol.

In the case of ACATACACGTGGGAGG, the “relative binding free energy” value amounted to 0.07 kcal/mol.

Turning to CCGGGCACGTGTGTGT, the “relative binding free energy” value is -0.13 kcal/mol.

For TTTTACACGTGACTAT, the “relative binding free energy” value turned out to be 0.3 kcal/mol.

For TCGTTCACGTGTATAT, the “relative binding free energy” value is 0.23 kcal/mol.

Consider AGATTCACGTGTTTTA, for which the “relative binding free energy” value is 0.24 kcal/mol.

Turning to TTTATCACGTGCTGGA, the “relative binding free energy” value worked out at 0.04 kcal/mol.

As to GAGTCCACGTGGGGGA, the “relative binding free energy” value stood at 0 kcal/mol.

Regarding TGTGGCACGTGAGTAC, the “relative binding free energy” value was -0.01 kcal/mol.

On to GCGATCACGTGTTGTA, for which the “relative binding free energy” value came out at 0.24 kcal/mol.

For the sequence TACTTCACGTGGGTTA, the “relative binding free energy” value worked out at 0.15 kcal/mol.

Regarding ATTTCCACGTGTATGT, the “relative binding free energy” value is 0.06 kcal/mol.

As to GAATTCACGTGATAGT, the “relative binding free energy” value stood at 0.36 kcal/mol.

With AGGTGCACGTGGTGGC, the “relative binding free energy” value is -0.1 kcal/mol.

As to ATTAGCACGTGATGTC, the “relative binding free energy” value is -0.01 kcal/mol.

Consider GGTGTCACGTGTAGTG, for which the “relative binding free energy” value is 0.17 kcal/mol.

Turning to CGTGTCACGTGATTGG, the “relative binding free energy” value is 0.17 kcal/mol.

As to TTTGACACGTGGGGCG, the “relative binding free energy” value was -0.16 kcal/mol.

Take TTGTACACGTGGGAGC: the “relative binding free energy” value is -0.28 kcal/mol.

With TCAAGCACGTGTGGTT, the “relative binding free energy” value was -0.07 kcal/mol.

As for AGGGGCACGTGCTTAG, the “relative binding free energy” value was -0.14 kcal/mol.

For the sequence TTTTTCACGTGATCTT, the “relative binding free energy” value amounted to 0.17 kcal/mol.

As for GGCGGCACGTGGCGGG, the “relative binding free energy” value was -0.1 kcal/mol.

Regarding GGGGGCACGTGTTAGC, the “relative binding free energy” value is -0.2 kcal/mol.

As for GGACGCACGTGGTGCT, the “relative binding free energy” value was -0.06 kcal/mol.

With AGGATCACGTGTAGAG, the “relative binding free energy” value was determined as 0.04 kcal/mol.

On to GCTATCACGTGGTTGT, for which the “relative binding free energy” value was -0.02 kcal/mol.
